The values that follow come from publication PMC4336329 (PLoS ONE, 2015).

The structures appear in SMILES notation. Hit rate of the full screen: of about 310,000 compounds, about 2,200 (0.71%) showed an effect of 50% or more. Effects have a minus sign here. The list shows a part of the results.

The target of this assay is human ether-à-go-go-related gene (hERG) potassium channel (human, UniProt Q12809). Put plainly: primary screen, population patch clamp on CHO cells stably expressing hERG.
human ether-à-go-go-related gene (hERG) potassium channel, sequence (Q12809 whole entry, looked up): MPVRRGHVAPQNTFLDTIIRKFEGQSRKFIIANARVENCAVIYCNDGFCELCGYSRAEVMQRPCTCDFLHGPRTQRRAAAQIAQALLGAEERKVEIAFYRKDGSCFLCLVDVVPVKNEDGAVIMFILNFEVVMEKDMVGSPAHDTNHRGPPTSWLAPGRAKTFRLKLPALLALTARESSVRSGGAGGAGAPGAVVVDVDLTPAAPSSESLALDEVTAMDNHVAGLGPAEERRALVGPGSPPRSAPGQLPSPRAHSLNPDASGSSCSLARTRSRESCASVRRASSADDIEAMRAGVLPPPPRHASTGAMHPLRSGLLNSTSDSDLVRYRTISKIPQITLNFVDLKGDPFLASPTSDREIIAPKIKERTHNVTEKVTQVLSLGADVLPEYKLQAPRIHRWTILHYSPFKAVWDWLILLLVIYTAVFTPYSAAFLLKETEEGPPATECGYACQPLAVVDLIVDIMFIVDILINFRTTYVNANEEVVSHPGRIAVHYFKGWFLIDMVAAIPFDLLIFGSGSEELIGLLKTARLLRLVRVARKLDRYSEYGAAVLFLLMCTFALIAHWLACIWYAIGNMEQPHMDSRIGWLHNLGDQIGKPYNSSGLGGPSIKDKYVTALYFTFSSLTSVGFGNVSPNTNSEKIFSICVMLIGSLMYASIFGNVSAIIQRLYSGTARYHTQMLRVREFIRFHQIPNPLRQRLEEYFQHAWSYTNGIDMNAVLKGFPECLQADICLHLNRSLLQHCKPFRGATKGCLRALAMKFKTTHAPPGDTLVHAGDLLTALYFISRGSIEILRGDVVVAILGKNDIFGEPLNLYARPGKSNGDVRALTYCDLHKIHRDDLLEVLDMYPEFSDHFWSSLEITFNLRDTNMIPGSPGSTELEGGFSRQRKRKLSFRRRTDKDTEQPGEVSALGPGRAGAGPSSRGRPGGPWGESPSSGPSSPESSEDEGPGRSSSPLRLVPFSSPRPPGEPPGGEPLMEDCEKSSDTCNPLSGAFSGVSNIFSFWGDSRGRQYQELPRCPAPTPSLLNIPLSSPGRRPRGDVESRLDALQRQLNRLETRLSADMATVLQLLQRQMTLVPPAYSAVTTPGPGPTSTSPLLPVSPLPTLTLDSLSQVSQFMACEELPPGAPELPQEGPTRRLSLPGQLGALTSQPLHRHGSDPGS
Turning to `CCOc1ccc(NC(=O)CN(C)C(=O)CCCOc2ccc(Cl)c(C)c2)cc1OCC`, the “hERG current change (%, negative = inhibition) at 1uM” value was 5.83%.

On to `O=C(Nc1nnc(C(F)(F)F)s1)c1ccc(N2C(=O)C3C4C=CC(C4)C3C2=O)cc1` (stereo not drawn), for which the “hERG current change (%, negative = inhibition) at 1uM” value is listed as 7.41%.

On to `CC1CCCN(C(c2ccccc2)c2sc3ncnn3c2O)C1` (stereo not drawn), for which the “hERG current change (%, negative = inhibition) at 1uM” value amounted to 12.8%.

In the case of `CCCCCCCCCCOC(=O)Cn1c(COc2ccc(C)cc2)[n+](C)c2ccccc21.[Cl-]`, the “hERG current change (%, negative = inhibition) at 1uM” value is recorded as -56.5%.

In the case of `CCOC(=O)c1nnc(-c2ccccc2)o1`, the “hERG current change (%, negative = inhibition) at 1uM” value was -4.02%.

`O=C(Nc1ccc(C(=O)N2CCCC2)cc1)c1ccccc1Br`: the “hERG current change (%, negative = inhibition) at 1uM” value is on record as 20.4%.

As for `COc1ccc(/C=c2\s/c(=C/C(=O)c3ccc(C)cc3)[nH]c2=O)cc1OC`, the “hERG current change (%, negative = inhibition) at 1uM” value stood at 10%.

Regarding `N#CC1=C(N)Oc2n[nH]c(-c3ccccc3)c2C1c1ccncc1` (stereo not drawn), the “hERG current change (%, negative = inhibition) at 1uM” value is reported as 18.9%.

On to `CC(OC(=O)c1cccc(-n2cnnn2)c1)C(=O)Nc1ccc(N(C)C)cc1` (stereo not drawn), for which the “hERG current change (%, negative = inhibition) at 1uM” value stood at 8.23%.

For the compound `O=C1NCCCC2c3c(cc(Br)c(O)c3Br)OC12N1CCOCC1` (stereo not drawn), the “hERG current change (%, negative = inhibition) at 1uM” value is reported as -6.36%.

Take `COc1cc2c(cc1OC)C(c1ccc(SC)cc1)CC(=O)N2` (stereo not drawn): the “hERG current change (%, negative = inhibition) at 1uM” value is recorded as -0.0781%.

Regarding `COc1ccc(NC(=O)CCc2ccccc2)cc1S(=O)(=O)N1CCOCC1`, the “hERG current change (%, negative = inhibition) at 1uM” value amounted to 5.25%.

With `CCN1C(=O)/C(=C2\SC(=S)N(NC(=O)c3ccccc3O)C2=O)c2ccccc21`, the “hERG current change (%, negative = inhibition) at 1uM” value came out at 9.82%.

For `COC(=O)c1sc2nc(C)nc(SCC(=O)Nc3sccc3C(N)=O)c2c1C`, the “hERG current change (%, negative = inhibition) at 1uM” value worked out at 9.11%.

With `CCN1C(=O)N(CC)C2C1N(C(C)=O)C(=O)N2C(C)=O` (stereo not drawn), the “hERG current change (%, negative = inhibition) at 1uM” value is listed as 1.09%.

In the case of `CC1(C)CC(N=C2C([N+](=O)[O-])=CC=C3C2=NC2(CCCCC2)N3O)CC(C)(C)N1`, the “hERG current change (%, negative = inhibition) at 1uM” value was determined as 11.6%.

As for `COc1ccc(C(=O)N2CCN(c3ncccn3)CC2)cc1[N+](=O)[O-]`, the “hERG current change (%, negative = inhibition) at 1uM” value is recorded as 12.1%.

As to `O=[N+]([O-])c1cc(S(=O)(=O)N2CCCCCC2)ccc1F`, the “hERG current change (%, negative = inhibition) at 1uM” value was 10.1%.

`Cc1c(C)c(C)c(S(=O)(=O)Nc2ccc3[nH]c(=O)[nH]c3c2)c(C)c1C`: the “hERG current change (%, negative = inhibition) at 1uM” value stood at 15.6%.

On to `COc1ccc(Cl)cc1CN1C(=O)NC2(CCCCCC2)C1=O`, for which the “hERG current change (%, negative = inhibition) at 1uM” value was -0.308%.

Consider `O=C(CCc1nc2ccccc2c(=O)[nH]1)Nc1ccccc1N1CCCC1`, for which the “hERG current change (%, negative = inhibition) at 1uM” value is listed as 6.4%.

Take `COc1ccccc1C(=O)NCCCn1cc(Br)c(C)n1`: the “hERG current change (%, negative = inhibition) at 1uM” value is on record as -5.05%.

With `COCCNc1oc(COc2cccc(C)c2)nc1C#N`, the “hERG current change (%, negative = inhibition) at 1uM” value is given as 7.52%.

Take `Cc1cnc(C(=O)NC(C)CCc2ccccc2)cn1` (stereo not drawn): the “hERG current change (%, negative = inhibition) at 1uM” value is on record as 10.4%.
